Results reported in article PMC3297496.
No constants are given. Whether binding was seen depends on the method and setting. Binding seen in cells or lysates may run through a third protein. Some binding calls cover weakened binding; strength is not graded here. Tags and fused reporters may be left off the sequences shown.

T1: His-tagged GPA-14, in-vitro translated (pTNT-HIS) (C. elegans) (UniProt Q9BIG2)
T1 sequence (chain, translated in the presence of biotinylated lysyl-tRNA): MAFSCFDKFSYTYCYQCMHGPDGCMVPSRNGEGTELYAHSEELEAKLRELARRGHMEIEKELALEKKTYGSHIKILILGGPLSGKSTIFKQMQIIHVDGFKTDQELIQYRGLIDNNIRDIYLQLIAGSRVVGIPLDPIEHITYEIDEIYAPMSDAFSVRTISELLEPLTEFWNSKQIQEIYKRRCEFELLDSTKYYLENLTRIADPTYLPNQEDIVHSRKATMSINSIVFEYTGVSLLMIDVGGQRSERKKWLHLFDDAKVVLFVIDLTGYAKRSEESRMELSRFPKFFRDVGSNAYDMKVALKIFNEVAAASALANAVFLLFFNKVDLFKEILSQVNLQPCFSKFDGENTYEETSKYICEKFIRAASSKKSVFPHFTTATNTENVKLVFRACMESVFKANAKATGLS

T2: His-tagged GPA-15, in-vitro translated (pTNT-HIS) (C. elegans) (UniProt P91907)
T2 sequence (chain, translated in the presence of biotinylated lysyl-tRNA): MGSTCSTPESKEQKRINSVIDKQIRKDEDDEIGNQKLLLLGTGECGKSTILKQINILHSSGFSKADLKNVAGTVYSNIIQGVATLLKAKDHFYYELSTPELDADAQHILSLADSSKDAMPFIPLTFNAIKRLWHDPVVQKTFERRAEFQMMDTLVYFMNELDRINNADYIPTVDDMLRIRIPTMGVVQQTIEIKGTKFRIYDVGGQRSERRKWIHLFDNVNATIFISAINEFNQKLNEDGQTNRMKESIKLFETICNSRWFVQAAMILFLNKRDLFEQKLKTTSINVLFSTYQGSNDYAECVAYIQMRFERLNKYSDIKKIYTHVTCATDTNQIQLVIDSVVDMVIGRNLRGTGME


Columns and labels:
[1] = molecular target: T1, His-tagged GPA-14, in-vitro translated (pTNT-HIS) (C. elegans); assay: pull-down; His pull-down: in-vitro translated His-tagged G-alpha and in-vitro translated DOP-2 truncations, 4°C, 20 mM sodium phosphate, 500 mM NaCl, 5% BSA; nickel resin (MagZ particles); SDS-PAGE, colorimetric detection
[2] = molecular target: T2, His-tagged GPA-15, in-vitro translated (pTNT-HIS) (C. elegans); assay: as above

binding [1] | binding [2] | Binder
binds | no binding | DOP-2-CVI (DOP-2XL amino acids 183-849, il3+Ct region), in-vitro translated (domain or fragment, UniProt E7EM37 183-849, translated in the presence of biotinylated lysyl-tRNA) PDANPYECRFYNAEFSILSSMISFVIPCFLVLFVYIRIIIALKKREKAAKMRREKNTIAHGLTMRPDTGEEQVDEEAAGRIVAGPVVNVMMAALPSMTRRMRQFERHRRAIELAGDEEWEEDELDVMDECCGGDDAGDDDDDYHADNGQGVVEASAPRTTSMLRRIINAASVGTANSTAQSVASASGMPAFFAQNISTTSPSSSSCARTTTTTSAIPKASGDLPLPMLLNEREFGNSSTPRSSLESLSENVNVITNDFVSENCTTFSRRSSYADDSQPTSSQTSSGDGRSYSIKGQKRFRNLSRNYSTKHHRKVVKVNRGNSRNNSRTASITNQSDDALIPAIIRTISRKSPRLFRRDKTDIKKHSMILANPITEPPKEYRRVSMPIHPTNSQTETETISASRDIENLPTTTISRSTTANSAELLGSPDDFEKFPALITETVLEDVLAETREGCFMQPTVSFALTVREMEGNALNNLKGCSVESSRRVSQVDPPLAIQILTRPSLPHLDLQRMDSIGTTCSSKTRADSLRSVDSKGSKKSNRNGIAVKLVKRAIKHEHSLKRKVSKAQRKEKRATKTLGVVVGVFLVCWVPFFVINILNAVCILLNKDSCQVGYDLFFYCTWIGYMNSFMNPIIYTIFNTEFRRAFKSIIFGRNSTRHHFSNKQAHV
no binding | no binding | DOP-2-CV (DOP-2XL amino acids 1-182, il1+il2), in-vitro translated (domain or fragment, UniProt E7EM37 1-182, translated in the presence of biotinylated lysyl-tRNA) MEAGETWNVSLEWPPPSLDLSTITQTPSTIVGSGIPLNYAGLSLIVIPLITLLGNLLVIISVLRYRALQSAINFLILGLAVADLLVAIIVMPYAVYVYVTNGDWYLGNLMCDIYMASDVCCSTASILLLAVISFDRYRAVSLPIQYSRQSQNVKRVWTLIAVIWLVSLTLASPMVFGVNVRP
